{"source": "the supplement of paper PMC8728848", "binders": {"B1": {"name": "Cohesin-marm-DC-ASGPR (protein)", "chain": "LDITSHHHHHHDDLDAVRIKVDTVNAKPGDTVRIPVRFSGIPSKGIANCDFVYSYDPNVLEIIEIEPGDIIVDPNPDKSFDTAVYPDRKIIVFLFAEDSGTGAYAITKDGVFATIVAKVKEGAPNGLSVIKFVEVGGFANNDLVEQKTQFFDGGVNVGDTTEPATPTTPVTTPTTTDDLDAASSKFQRDLVTLRTDFSNFTSNTLAEIQALTSQGSSLQETIASLKAEVEGHKQELQAGASELQEHNKQKAHLGRCPHTCVCPSSFVCVPVHSEILLRVQQLVQDLNKLSCQVAILKNNATTERTCCPINWVEHQGSCYWFSRSGKTWPEAERYCQLENTHLVVINSREEQNFVQAHLGSAYTWMGLSDPEGVWKWVDGTDYSSGFQNWKPGQPDDWQGHGLGGGEDCAHFHPDGRWNDDVCQRSYHWVCEAGLTQASQDSHAS"}}, "assay_in_all_cases": "glycan array binding signal (z-score within array); higher = stronger binding", "details_in_all_cases": "glycan notation: IUPAC condensed, linker removed", "key": {"[1]": {"target": "Gal(b1-4)GlcNAc(b1-2)[Gal(b1-4)GlcNAc(b1-6)]Man(a1-6)[GlcNAc(b1-4)][Gal(b1-4)GlcNAc(b1-2)Man(a1-3)]Man(b1-4)GlcNAc(b1-4)GlcNAc", "in_short": "(§1)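 The binding signal is a Z-score computed within each array. Data were drawn from 3228 arrays in the Consortium for Functional Glycomics database, restricted to those with a known protein sequence. Scores were averaged over arrays of the same protein sequence at different concentrations or buffers, and over linkers, and negative values can be taken as non-binding.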"}, "[2]": {"target": "Gal(b1-4)GlcNAc(b1-2)[Gal(b1-4)GlcNAc(b1-6)]Man(a1-6)[GlcNAc(b1-4)][Gal(b1-4)GlcNAc(b1-2)[Gal(b1-4)GlcNAc(b1-4)]Man(a1-3)]Man(b1-4)GlcNAc(b1-4)[Fuc(a1-6)]GlcNAc", "in_short": "as §1"}, "[3]": {"target": "Gal(b1-4)GlcNAc(b1-3)Gal(b1-3)GalNAc", "in_short": "as §1"}, "[4]": {"target": "Gal(b1-4)GlcNAc(b1-3)Gal(b1-3)GlcNAc", "in_short": "as §1"}, "[5]": {"target": "Gal(b1-4)GlcNAc(b1-3)Gal(b1-4)Glc", "in_short": "as §1"}, "[6]": {"target": "Gal(b1-4)GlcNAc(b1-3)Gal(b1-4)GlcNAc", "in_short": "as §1"}, "[7]": {"target": "Gal(b1-4)GlcNAc(b1-3)Gal(b1-4)GlcNAc(b1-2)Man(a1-3)[Gal(b1-4)GlcNAc(b1-3)Gal(b1-4)GlcNAc(b1-2)Man(a1-6)]Man(b1-4)GlcNAc(b1-4)GlcNAc", "in_short": "as §1"}, "[8]": {"target": "Gal(b1-4)GlcNAc(b1-3)Gal(b1-4)GlcNAc(b1-2)Man(a1-3)[Gal(b1-4)GlcNAc(b1-3)Gal(b1-4)GlcNAc(b1-2)Man(a1-6)]Man(b1-4)GlcNAc(b1-4)[Fuc(a1-6)]GlcNAc", "in_short": "as §1"}, "[9]": {"target": "Gal(b1-4)GlcNAc(b1-3)Gal(b1-4)GlcNAc(b1-2)[Gal(b1-4)GlcNAc(b1-3)Gal(b1-4)GlcNAc(b1-6)]Man(a1-6)[Gal(b1-4)GlcNAc(b1-3)Gal(b1-4)GlcNAc(b1-2)Man(a1-3)]Man(b1-4)GlcNAc(b1-4)GlcNAc", "in_short": "as §1"}, "[10]": {"target": "Gal(b1-4)GlcNAc(b1-3)Gal(b1-4)GlcNAc(b1-2)[Gal(b1-4)GlcNAc(b1-3)Gal(b1-4)GlcNAc(b1-6)]Man(a1-6)[Gal(b1-4)GlcNAc(b1-3)Gal(b1-4)GlcNAc(b1-2)Man(a1-3)]Man(b1-4)GlcNAc(b1-4)[Fuc(a1-6)]GlcNAc", "in_short": "as §1"}, "[11]": {"target": "Gal(b1-4)GlcNAc(b1-3)Gal(b1-4)GlcNAc(b1-3)Gal(b1-4)GlcNAc", "in_short": "as §1"}, "[12]": {"target": "Gal(b1-4)GlcNAc(b1-3)Gal(b1-4)GlcNAc(b1-3)Gal(b1-4)GlcNAc(b1-2)Man(a1-3)[Gal(b1-4)GlcNAc(b1-3)Gal(b1-4)GlcNAc(b1-3)Gal(b1-4)GlcNAc(b1-2)Man(a1-6)]Man(b1-4)GlcNAc(b1-4)GlcNAc", "in_short": "as §1"}, "[13]": {"target": "Gal(b1-4)GlcNAc(b1-3)Gal(b1-4)GlcNAc(b1-3)Gal(b1-4)GlcNAc(b1-2)Man(a1-3)[Gal(b1-4)GlcNAc(b1-3)Gal(b1-4)GlcNAc(b1-3)Gal(b1-4)GlcNAc(b1-2)Man(a1-6)]Man(b1-4)GlcNAc(b1-4)[Fuc(a1-6)]GlcNAc", "in_short": "as §1"}, "[14]": {"target": "Gal(b1-4)GlcNAc(b1-3)Gal(b1-4)GlcNAc(b1-3)Gal(b1-4)GlcNAc(b1-2)[Gal(b1-4)GlcNAc(b1-3)Gal(b1-4)GlcNAc(b1-3)Gal(b1-4)GlcNAc(b1-6)]Man(a1-6)[Gal(b1-4)GlcNAc(b1-3)Gal(b1-4)GlcNAc(b1-3)Gal(b1-4)GlcNAc(b1-2)Man(a1-3)]Man(b1-4)GlcNAc(b1-4)[Fuc(a1-6)]GlcNAc", "in_short": "as §1"}, "[15]": {"target": "Gal(b1-4)GlcNAc(b1-3)Gal(b1-4)GlcNAc(b1-3)Gal(b1-4)GlcNAc(b1-3)Gal(b1-4)GlcNAc(b1-2)Man(a1-3)[Gal(b1-4)GlcNAc(b1-3)Gal(b1-4)GlcNAc(b1-3)Gal(b1-4)GlcNAc(b1-3)Gal(b1-4)GlcNAc(b1-2)Man(a1-6)]Man(b1-4)GlcNAc(b1-4)GlcNAc", "in_short": "as §1"}, "[16]": {"target": "Gal(b1-4)GlcNAc(b1-3)Gal(b1-4)GlcNAc(b1-3)Gal(b1-4)GlcNAc(b1-3)Gal(b1-4)GlcNAc(b1-2)Man(a1-3)[Gal(b1-4)GlcNAc(b1-3)Gal(b1-4)GlcNAc(b1-3)Gal(b1-4)GlcNAc(b1-3)Gal(b1-4)GlcNAc(b1-2)Man(a1-6)]Man(b1-4)GlcNAc(b1-4)[Fuc(a1-6)]GlcNAc", "in_short": "as §1"}, "[17]": {"target": "Gal(b1-4)GlcNAc(b1-3)Gal(b1-4)GlcNAc(b1-3)Gal(b1-4)GlcNAc(b1-3)Gal(b1-4)GlcNAc(b1-2)[Gal(b1-4)GlcNAc(b1-3)Gal(b1-4)GlcNAc(b1-3)Gal(b1-4)GlcNAc(b1-3)Gal(b1-4)GlcNAc(b1-6)]Man(a1-6)[Gal(b1-4)GlcNAc(b1-3)Gal(b1-4)GlcNAc(b1-3)Gal(b1-4)GlcNAc(b1-3)Gal(b1-4)GlcNAc(b1-2)Man(a1-3)]Man(b1-4)GlcNAc(b1-4)[Fuc(a1-6)]GlcNAc", "in_short": "as §1"}, "[18]": {"target": "Gal(b1-4)GlcNAc(b1-3)Gal(b1-4)GlcNAc(b1-3)Gal(b1-4)GlcNAc(b1-3)Gal(b1-4)GlcNAc(b1-3)Gal(b1-4)GlcNAc(b1-2)Man(a1-3)[Gal(b1-4)GlcNAc(b1-3)Gal(b1-4)GlcNAc(b1-3)Gal(b1-4)GlcNAc(b1-3)Gal(b1-4)GlcNAc(b1-3)Gal(b1-4)GlcNAc(b1-2)Man(a1-6)]Man(b1-4)GlcNAc(b1-4)GlcNAc", "in_short": "as §1"}, "[19]": {"target": "Gal(b1-4)GlcNAc(b1-3)Gal(b1-4)GlcNAc(b1-3)Gal(b1-4)GlcNAc(b1-3)Gal(b1-4)GlcNAc(b1-3)Gal(b1-4)GlcNAc(b1-2)Man(a1-3)[Gal(b1-4)GlcNAc(b1-3)Gal(b1-4)GlcNAc(b1-3)Gal(b1-4)GlcNAc(b1-3)Gal(b1-4)GlcNAc(b1-3)Gal(b1-4)GlcNAc(b1-2)Man(a1-6)]Man(b1-4)GlcNAc(b1-4)[Fuc(a1-6)]GlcNAc", "in_short": "as §1"}}, "note": "This is one part of the list."}
{"binder": "B1", "values": [{"measurement": "glycan array binding signal (z-score)", "setting": "[1]", "result": -0.307}, {"measurement": "glycan array binding signal (z-score)", "setting": "[2]", "result": -0.282}, {"measurement": "glycan array binding signal (z-score)", "setting": "[3]", "result": -0.291}, {"measurement": "glycan array binding signal (z-score)", "setting": "[4]", "result": -0.307}, {"measurement": "glycan array binding signal (z-score)", "setting": "[5]", "result": -0.297}, {"measurement": "glycan array binding signal (z-score)", "setting": "[6]", "result": -0.291}, {"measurement": "glycan array binding signal (z-score)", "setting": "[7]", "result": -0.175}, {"measurement": "glycan array binding signal (z-score)", "setting": "[8]", "result": -0.257}, {"measurement": "glycan array binding signal (z-score)", "setting": "[9]", "result": 0.022}, {"measurement": "glycan array binding signal (z-score)", "setting": "[10]", "result": -0.249}, {"measurement": "glycan array binding signal (z-score)", "setting": "[11]", "result": -0.304}, {"measurement": "glycan array binding signal (z-score)", "setting": "[12]", "result": -0.177}, {"measurement": "glycan array binding signal (z-score)", "setting": "[13]", "result": -0.117}, {"measurement": "glycan array binding signal (z-score)", "setting": "[14]", "result": -0.297}, {"measurement": "glycan array binding signal (z-score)", "setting": "[15]", "result": -0.046}, {"measurement": "glycan array binding signal (z-score)", "setting": "[16]", "result": -0.129}, {"measurement": "glycan array binding signal (z-score)", "setting": "[17]", "result": -0.272}, {"measurement": "glycan array binding signal (z-score)", "setting": "[18]", "result": -0.093}, {"measurement": "glycan array binding signal (z-score)", "setting": "[19]", "result": -0.27}]}
